In patent US12583848B2, “Isoxazole-3-carboxamide derivatives and their use for treatment of diseases caused by virus infection” (Collaborations Pharmaceuticals, Inc., priority 2019, dated 2026):

System: Enterovirus D68 (EV-D68 MP30 PP)
Assay type: in vivo, AG129 mice
Conditions: 30 mg/kg/day, day 5 post-infection

SMILES: Cc1cc(-c2noc(C(F)(F)F)n2)ccc1OCCCc1cc(C(=O)N(C)C)no1 [Compound 8, N,N-dimethyl-5-(3-{2-methyl-4-[5-(trifluoromethyl)-1,2,4-oxadiazol-3-yl]phenoxy}propyl)isoxazole-3-carboxamide]
- lung virus titers compared to placebo: reduction in virus titer [passage A] and reduced lung virus titers [passage B]

For part of its entries the source gives two or more results. The other results are left out here. There may be further records. Results that share an entry seem to repeat one measurement (runs, samples, wells or individuals). A tag in brackets gives the origin of a value. Letters hold for one entry only.
